Drawing on publication PMC12136788, this text covers binding signal for 22 molecules.

Positions count from the first letter of the chain named. The list shows a part of the results.

T1: UNK ZnF1-3 (human, UniProt Q9C0B0 31-174)
T1 sequence: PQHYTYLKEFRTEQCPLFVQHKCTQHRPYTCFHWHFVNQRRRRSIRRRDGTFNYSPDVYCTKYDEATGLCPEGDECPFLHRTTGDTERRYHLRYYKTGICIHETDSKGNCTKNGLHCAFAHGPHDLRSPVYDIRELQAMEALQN

B1: chr15:68825492:68825493:+_ENSMUSG00000022332_ENSMUST00000022954|mus_mus|motif|central (ssRNA)
RNA: GGGAGUUCUACAGUCCGACGAUCUAUCACCACGUCAAUGUACUUCUCUUCCUCCUUGCCUUCUCCCUUUUGAAACUUUUCGGUUUCUCGGUUCACCAAGCGCAGGGCGUGCGUGAAGGAGGGGUCCAGAGAGUCCUUCUCCGCCAACAGAGGAUUGAGCAUCA
B2: chr7:141445308:141445309:+_ENSG00000106028_ENST00000265304|hu_hu|hu_hu_hu_mus_False|28_28 (ssRNA)
RNA: GGGAGUUCUACAGUCCGACGAUCUAUGAUUGUUGUUGCUUGCCGCCUCACAUUGUUUUUAUCCAUGUACUCGCCAUAGUCCACUUUCCCUUCCACAAAUAUACGAGACCCCUUUUUCACAUACUGAUAUGCCACAUCUCUGAGCAACAGAGGAUUGAGCAUCA
B3: chr7:7679991:7679992:-_ENSG00000106399_ENST00000396682|hu_hu|hu_hu_hu_mus_False|1_58 (ssRNA)
RNA: GGGAGUUCUACAGUCCGACGAUCUGGGAUGAAUCUUUUCCAGCUUCCCCACGAAGCACACGGGCCGGUCGAUAUACUGAGCUAGCAUGCUGGCGUUGACGCGCGCUUUGGGGAGCUGCAUUAUGUCCUCCAUGAUUAUGGUCCCAACAGAGGAUUGAGCAUCA
B4: chrX:103214973:103214974:+_ENSMUSG00000031231_ENSMUST00000033582|mus_mus|motif|central (ssRNA)
RNA: GGGAGUUCUACAGUCCGACGAUCAGAAACACAGAAGAUGGCUCCACCUGCUAAUAUAGCAUUCCCAUAUUUGUCAUGGAAACGGGGUGCCCUCUUCUGGUGGCUCUGCCUUGCCACCACUUGCUGAAUGCUUCGAACUUGGAGCAACAGAGGAUUGAGCAUCA
B5: chr8:101932682:101932683:-_ENSG00000164924_ENST00000353245|hu_hu|FALSE|FALSE (ssRNA)
RNA: GGGAGUUCUACAGUCCGACGAUCAGACAUGGAAGCAGUUUUACACUGGCCCUUUUGAAGCCACAAUGUACCAAAAGUACUAUGCCAAACACUUAUAACUUGUAUAAAAAUUCCACAUCCCCAUAUUGGCCACCUCAAGAUGAACAACAGAGGAUUGAGCAUCA
B6: chr17:55758012:55758013:+_ENSG00000153944_ENST00000284073|hu_mus|motif|central (ssRNA)
RNA: GGGAGUUCUACAGUCCGACGAUCUCCUUUUAAAAAACGUCUUGGGAAAAGCAGUUUUUCAUAUUUUAAAUAAAAAUCGGGCGGGAUCAUAACAUUAGAAGCUGUGCACAGAGAGGCUGGUAGGCUGGCAGGGUGCUAAUGUGGCAACAGAGGAUUGAGCAUCA
B7: 184043062_184043288_2805_CDS_ENSG00000114867_ENST00000411531|human|control|control (ssRNA)
RNA: GGGAGUUCUACAGUCCGACGAUCUCGGCGUGGCACCCAAUUGCUCCCUCGCAGAUCCAGCACGUCCUGCAGCAUAAAGCGGAUGCGGGAUGACGUCUUCUUUUCUUUAAUGAUUUUUUCCAUCUGGUUGAAAUACUGAUCCAUCAACAGAGGAUUGAGCAUCA
B8: 91039910_91048664_436_3pUTR_ENSMUSG00000030091_ENSMUST00000032179|mouse|control|control (ssRNA)
RNA: GGGAGUUCUACAGUCCGACGAUCUGCUGAAGGUAUUCCCUUCUGAGUCCAGAGCCUGGAUCUUCAGCUCCAGUGGAGAGUCCUCAAGAUAGAGCUCACGGGUGGUAGAGACAAUCUGAAUGCCGUGGAUGAGAUCAACGAUGGCAACAGAGGAUUGAGCAUCA
B9: chr4:52453130:52453131:+_ENSMUSG00000028312_ENSMUST00000117280|mus_mus|motif|central (ssRNA)
RNA: GGGAGUUCUACAGUCCGACGAUCUCCUCUGUGCAUAGGACUUGAAUCCUUCGAGAAUGAUUGAUUUAACAUACAUUUUCGGAACUGUCUUGGGUUAGUAAGCCUGUUAGGCAACAAGCUACAAGUCACGUCUGUACUCAGGCGCAACAGAGGAUUGAGCAUCA
B10: 55316543_55316663_4966_3pUTR_ENSMUSG00000018583_ENSMUST00000018727|mouse|control|control (ssRNA)
RNA: GGGAGUUCUACAGUCCGACGAUCGGCUCCUUGGCUCAAUACCGUAGGUAUUGCCCGAGGCCCUGCCUGCUCCUGGAAGCCCUGAUUGCUCAACUGCUUCUCACCAUCUCUUCCCCUUAUUACUGGGUCAUAAUUCAAGGCAGACAACAGAGGAUUGAGCAUCA
B11: chr1:60041781:60041782:+_ENSMUSG00000041040_ENSMUST00000036540|mus_hu|mus_mus_mus_hu_False|1_18 (ssRNA)
RNA: GGGAGUUCUACAGUCCGACGAUCAAGUUUACAAUAGUAAAGUAAAUGCAGUAGUGGCAAAUUUUCUUUUAUUUUCCUUCACAAAAGAAAAUCUUUAUAACCCAGUCCUAGUCUUGGCAGAGAAAGCAGCUAUAAAUGCCACUGCAACAGAGGAUUGAGCAUCA
B12: chr1:109605286:109605287:-_ENSG00000197780_ENST00000461096|hu_mus|hu_hu_hu_mus_True|68_88 (ssRNA)
RNA: GGGAGUUCUACAGUCCGACGAUCAAGUUUCAGAGUAACAUUCAGUAUACUUAAAUCAUGCAAUUAUCCUUACUUUAAGCUAAGCAGAAUAAUAAUUUAAUACCGUAAGUGAACUACACACAAAGCCUGAACCGCGAAAAUGGUCAACAGAGGAUUGAGCAUCA
B13: chr1:109605286:109605287:-_ENSG00000197780_ENST00000461096|hu_mus|FALSE|FALSE (ssRNA)
RNA: B12 RNA with U47A, A48C, U51C, A52U, A53U, A54U, U55A, C56A, C72U, U74A
B14: chr14:90870231:90870232:+_ENSG00000198668_ENST00000553542|hu_hu|FALSE|FALSE (ssRNA)
RNA: GGGAGUUCUACAGUCCGACGAUCACGGAUUUCUUCUUCACUAUCUGUAUCUUUCAUUUUUCUAGCCAUCAUAGUCAAAAAUUCGGGGAAGUCAAUGGUGCCAUUACCAUCAGCAUCCACUUCAUUGAUCAUAUCCUGCAAUUCCAACAGAGGAUUGAGCAUCA
B15: chr10:98726024:98726025:+_ENSMUSG00000019960_ENSMUST00000020118|mus_mus|FALSE|FALSE (ssRNA)
RNA: GGGAGUUCUACAGUCCGACGAUCACCCAGUGAAUGAAAUCCAAUUAAUUCGGACUCCGUGCCACUGAGAGGAGAAAAAGGGAAAAGAAAAAAAGUCUAGCGGCUCUUAAUCCUUCCCUCUGAGGCUGCACCUCGGAUCCAACCCAACAGAGGAUUGAGCAUCA
B16: chr7:44244176:44244177:+_ENSG00000106636_ENST00000223369|hu_mus|hu_hu_hu_mus_False|38_78 (ssRNA)
RNA: GGGAGUUCUACAGUCCGACGAUCACUGUCGCUCCGGACGUAGACAUGGCAAAGAUAGUCUUGUUCUUUGACAGAAGCUCUGCUGCCUUUCCCCGAGCGCUCCACAAUCAGUUGACUUGUAAAGGUCAUGAAUUCCUGCACACUCAACAGAGGAUUGAGCAUCA
B17: chr1:109605286:109605287:-_ENSG00000197780_ENST00000461096|hu_mus|hu_hu_hu_mus_True|28_38 (ssRNA)
RNA: GGGAGUUCUACAGUCCGACGAUCAAGUUUCAGAGUAACAUUCAGUAACCUCUUUAAAUGCAAUUAUCCUUAUUAUAAGCUAAGCAGAAUAAUAAUUUAAUACAUAGAGUAAAUACAACACAAAGCCUGAACCGCGAAAAUGGUCAACAGAGGAUUGAGCAUCA
B18: chrX:70927055:70927056:+_ENSMUSG00000019558_ENSMUST00000114465|mus_hu|FALSE|FALSE (ssRNA)
RNA: GGGAGUUCUACAGUCCGACGAUCCCUUUGCCCAGAGGCGCCAUUUACAUCUGGCAUUCACCUUUGCUAAGAGAUAGAGAUCUAUAUAUACUCUCCGUACUCACGCACGCGUGCACUCGCACCCAAGCUCACACAAUUGAUACUCAACAGAGGAUUGAGCAUCA
B19: chr5:138699528:138699529:+_ENSG00000120727_ENST00000265192|hu_mus|motif|central (ssRNA)
RNA: GGGAGUUCUACAGUCCGACGAUCAUCCUCUUCAUGAGAAUGACCGUUAAUAAUCACAUCGUCAUUGAUGAUGCUUGGGCGGGUACUGCUGCGACUUGGAUCUUUCAUGGUUGGUGCUCGUUGUCGUUUUUAACCCAGUGCACGCAACAGAGGAUUGAGCAUCA
B20: chr2:187370222:187370223:+_ENSG00000065548_ENST00000337859|hu_hu|FALSE|FALSE (ssRNA)
RNA: GGGAGUUCUACAGUCCGACGAUCUUUCCUUUUCUUCCAGGCAAGAAAAGAUUCUAGAGUGAUUUUGGUAACAUUUGGACCUAGGGCAGAACGCUCUCUCUCAAUUAGAUCUUCUAAUGAAAUUUCAUCUUCUUUCUCUUCUUUCAACAGAGGAUUGAGCAUCA
B21: 31086903_31087023_3498_3pUTR_ENSG00000092140_ENST00000206595|human|control|control (ssRNA)
RNA: GGGAGUUCUACAGUCCGACGAUCUGGGACUAUAUAUUUUCACAUUGUUAGCACUUUGUUAGUACAGUUACUUUUAGGUAUUGUCUUUUAGUAGCAUUAUUAAAGUUAAAAAAUAAAGGAAACAGAAGUAAAGAGUUUAUAGAACAACAGAGGAUUGAGCAUCA
B22: chr7:135612270:135612271:-_ENSG00000105887_ENST00000393085|hu_mus|hu_hu_hu_mus_False|98_108 (ssRNA)
RNA: GGGAGUUCUACAGUCCGACGAUCGUUUCUGAGAUGUUAAGUAUUACGUACUUCAGUGGAAAACAAAACUUAACCUUUUAUUAAUGCGUGUUGUACCAAAAGCAGACAUUUUAGCUUCAUUUAUUCAAAAAUAUUAACAUUAAGCAACAGAGGAUUGAGCAUCA

The target in this test is T1, UNK ZnF1-3. Description: nsRBNS (natural sequence RNA bind-n-seq); RBNS binding buffer (assumed for nsRBNS): 25 mM Tris pH 7.5, 150 mM KCl, 3 mM MgCl2, 0.01% Triton X-100, 500 ug/ml BSA, 20 U/ml SUPERase-In, 4 C; UNK is unkempt and MSI1 is Musashi-1; names of the RNAs are library labels; protein concentration not given here; high values mean tight binding.
Regarding B1, the binding signal turned out to be 0.792 enrichment R.

In turn, B2 showed a binding signal of 0.687 enrichment R.

The molecule B3 showed a binding signal of 0.502 enrichment R.

As for B4, the binding signal amounted to 1 enrichment R.

B5 yielded a binding signal of 1.44 enrichment R.

B6 came in with a binding signal of 2.38 enrichment R.

In turn, B7 displayed a binding signal of 0.794 enrichment R.

B8 returned a binding signal of 1.19 enrichment R.

Molecule B9 showed a binding signal of 0.564 enrichment R.

B10 registered a binding signal of 0.716 enrichment R.

On to B11, for which the binding signal came out at 0.833 enrichment R.

In turn, B12 showed a binding signal of 0.726 enrichment R.

Turning to B13, the binding signal was determined as 0.809 enrichment R.

With B14, the binding signal came to 0.642 enrichment R.

Take B15: the binding signal stood at 0.638 enrichment R.

In turn, B16 yielded a binding signal of 0.872 enrichment R.

The molecule B17 yielded a binding signal of 0.823 enrichment R.

For B18, the binding signal was determined as 0.817 enrichment R.

Molecule B19 gave a binding signal of 0.55 enrichment R.

Molecule B20 came in with a binding signal of 0.614 enrichment R.

B21 gave a binding signal of 2 enrichment R.

In turn, B22 showed a binding signal of 0.882 enrichment R.
